We go through 22 molecules from PMC12136788.

Some of the results follow.

Sequences and labels used below:
T1: UNK ZnF1-3 (human, UniProt Q9C0B0 31-174)
T1 sequence: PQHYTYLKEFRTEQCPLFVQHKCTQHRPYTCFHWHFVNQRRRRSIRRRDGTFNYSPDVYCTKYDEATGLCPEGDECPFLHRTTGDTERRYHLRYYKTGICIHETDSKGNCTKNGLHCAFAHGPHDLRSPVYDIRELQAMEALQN

B1: chr11:95532463:95532464:+_ENSG00000166037_ENST00000540830|hu_mus|FALSE|FALSE (ssRNA)
RNA: GGGAGUUCUACAGUCCGACGAUCCUUAUUUGGGGAGCGUCUCAGAUCACUGUUAAGGAAAGGCUUAUCAGGUGGAUACAAUACAUAUGGAGACGAAGAAUGACGAACCAUAUUUCCAUUAGACCUUGAUGGUUCAGCUAGGACCAACAGAGGAUUGAGCAUCA
B2: chr20:32246340:32246341:-_ENSG00000125967_ENST00000246190|hu_mus|FALSE|FALSE (ssRNA)
RNA: GGGAGUUCUACAGUCCGACGAUCUCUCCAGGAGGCUUCAUCCUGCCAGAACUCAUACAGGGUGAAAGCAGCAUUGUCUAGCAUCUUCUGGGCAGACACAUGCAGACAAUGGCUUUGGGCCCCUGUGAAGUUCAUGUAGCAGCACAACAGAGGAUUGAGCAUCA
B3: chrX:70775091:70775092:+_ENSG00000147162_ENST00000373719|hu_mus|FALSE|FALSE (ssRNA)
RNA: GGGAGUUCUACAGUCCGACGAUCAUCGGGGAAAUGGGGUUGCAGUUCGAUAGCUCUCCUGUAGGUAUCAAUGGCCAGGUCUAUUAGGCCUUGCUCGUAGUACACACAAGCCAGGUUGCCGUGCACCACCGCAUGAUUUGGGCUCAACAGAGGAUUGAGCAUCA
B4: 116096438_116096558_1552_3pUTR_ENSMUSG00000029518_ENSMUST00000031492|mouse|control|control (ssRNA)
RNA: GGGAGUUCUACAGUCCGACGAUCAGGAAAUAAUCGUGAGGAACUUAGUUCAUUUGAUUUGGCUUCAUUGGCUGUAUUUGUUAAAAUGCUCCUCCUUGCGAGCUCCGUCUCUUUACAGAUGUCCCACUACCUUUCUGCGGGAACCAACAGAGGAUUGAGCAUCA
B5: 110068728_110068848_708_CDS_ENSG00000119318_ENST00000358015|human|control|control (ssRNA)
RNA: GGGAGUUCUACAGUCCGACGAUCAGGUGCAGGUUCAGAAGAUGCUGUCGCUGAUGCUGGAGUGAUGGAUGCAGGUGUGGAAGUGGGGGCCAAGGCAGGGACAGGGGUUGGAGCCUGAGCCACAGUUGUGGUGGUGGAGGAAGUCAACAGAGGAUUGAGCAUCA
B6: chr12:111168485:111168486:-_ENSG00000186298_ENST00000335007|hu_mus|FALSE|FALSE (ssRNA)
RNA: GGGAGUUCUACAGUCCGACGAUCCAAGAGGCAGAUUGUCUCCAGGGACUGCUUGCCCCUGUCCACAUAGUCCCCGAGAAACAAAUAGUUGCUCUCUGGAGGAAAGCCACCGUAUUCAAACAGACGGAGCAAAUCAUAGUACUGCAACAGAGGAUUGAGCAUCA
B7: 27682458_27683508_6835_CDS_ENSMUSG00000022263_ENSMUST00000090247|mouse|control|control (ssRNA)
RNA: GGGAGUUCUACAGUCCGACGAUCAGGCAGAAGUCCUGCGUCUUGAUCUGUGACCAGGAAUGUGUCCUGUAAGAGCAGUUUACCCUGGGCAACAAUUUUACCGUCAAAUCCCUGCAGCCGCCCGACGUUCAUCAUGUCAUUACACAACAGAGGAUUGAGCAUCA
B8: chr2:48026839:48026840:+_ENSG00000116062_ENST00000540021|hu_hu|hu_hu_hu_mus_False|88_98 (ssRNA)
RNA: GGGAGUUCUACAGUCCGACGAUCAUAGUGAGCCACUAGAGUCCUAAAUCUCGAACAGUGGCGGUCAUCCGAAAACUGGCCGAUGAAAAACUUGCCCAGUGAAGUGUCCACAAAGCAAACACCAUACACACGAGUGUGACCAGACAACAGAGGAUUGAGCAUCA
B9: chr11:64847196:64847197:-_ENSG00000146670_ENST00000275517|hu_mus|FALSE|FALSE (ssRNA)
RNA: GGGAGUUCUACAGUCCGACGAUCCUGAGUGUACAGCACGGGGGUGCUGGAGGGAGUACCAGGGACACUACAAGUCUUGAAGAGGUCUUCUUUCGUGGGUACCUUGAGCGGAGGGUUGUUCUCUUUUUCCAAAAUAAAAGAGAUCAACAGAGGAUUGAGCAUCA
B10: 160235901_160243599_830_3pUTR_ENSG00000109756_ENST00000264431|human|control|control (ssRNA)
RNA: GGGAGUUCUACAGUCCGACGAUCUUCCACCACUGCGAACACCAUCACAGCACAGAGUUCUCGCCUCACUGACAUUGUCAUAUUGGCAAAAGCAGGCAACUGGUGCAUAAAUUCCAAGAGUUGUUCAAUGUCAUCAUCUGUCCGCAACAGAGGAUUGAGCAUCA
B11: 30634579_30634699_343_CDS_ENSG00000106105_ENST00000389266|human|control|control (ssRNA)
RNA: GGGAGUUCUACAGUCCGACGAUCGCUGCUCCGGGAGGCGGCGGCGGGCAAGGAGAUCGGGGGGCAGGAGGCCGCGCUGAGGGACCGGCGGAGCAGGAGCGAGGGUCGGGCUAAGAGCCGGGGCGGCAGCAGCAGCAGCAGAGCCAACAGAGGAUUGAGCAUCA
B12: chr17:56236750:56236751:+_ENSMUSG00000002833_ENSMUST00000002911|mus_hu|FALSE|FALSE (ssRNA)
RNA: GGGAGUUCUACAGUCCGACGAUCCCUCCGCUCCUUCUCCUCCUUCUCCUGCUCCCGCAGGCGCCGCAGCUCCUCCUCCUGCUCUCGCCGCCGCCGGGCCUCCAGCUCGCGCCUCCGCGCCUCGUCCCGCCGCUUCCACUCACUCAACAGAGGAUUGAGCAUCA
B13: chr16:23111026:23111027:+_ENSMUSG00000022884_ENSMUST00000148085|mus_mus|motif|central (ssRNA)
RNA: GGGAGUUCUACAGUCCGACGAUCGAUAUGCUACCCACAAAGAUCAUGAUGAUCUCCAAGCUGAGUAUUUAUUGCUGGUCGGAAUACUUAUUGCACCGAAUCUUAUGACAUAGGACACUGGACAUUAAGAAAGAGGUCCACCCCCAACAGAGGAUUGAGCAUCA
B14: chr10:62551973:62551974:+_ENSG00000170312_ENST00000395284|hu_hu|motif|central (ssRNA)
RNA: GGGAGUUCUACAGUCCGACGAUCUAACAUUUUCGAGAGCAAAUCCAAGCCAUUUUCAUCCAAGUUUUUGACAUGGGAUGCGGGGCUUCCUGGUUUCCAUUUGGGAAAUGUAUUCUUAUAGUCCUGUAAAGAUUCCACUUCUGGCAACAGAGGAUUGAGCAUCA
B15: chr7:90019433:90019434:+_ENSMUSG00000057706_ENSMUST00000082237|mus_hu|mus_mus_mus_hu_True|78_88 (ssRNA)
RNA: GGGAGUUCUACAGUCCGACGAUCAAAUAAUACAGUGUUCUUUGCCAAAGGCCAUACUAAAAAUAAAAAGAUUUAACCCAGCUACAAAAAAGUUCACUGAACUUAAAUUAAAAUACUUGUAAACAUCUUUGCAAUAUGAAAUAUCAACAGAGGAUUGAGCAUCA
B16: chr8:74858975:74858976:-_ENSG00000154582_ENST00000284811|hu_mus|hu_hu_hu_mus_True|38_38 (ssRNA)
RNA: GGGAGUUCUACAGUCCGACGAUCGACCUUGUAGGUAAAAUACAUGCACACUUUUGAUAGCACAUGUGAGGGGAUCUCUCUAAAAUUGACCUCGUUGGUUUCGUUCUCAGCAAACUGACCUGGACCACUCAACAUAGCCUUUAUCAACAGAGGAUUGAGCAUCA
B17: 52131463_52132751_2120_CDS_ENSG00000112118_ENST00000229854|human|control|control (ssRNA)
RNA: GGGAGUUCUACAGUCCGACGAUCAUCUUUGGCAUCUGGCUGGCGAGUCUUCCUUCUCUUCCUCUUCUGCUCCUGGUCCUCUUGGCUUUUCUCCUCUUCAUCUUCUGUCUCUGAUUCAUCCUCACUUCGCUUCUUACGUUUCUUCAACAGAGGAUUGAGCAUCA
B18: chr1:137302511:137302512:-_ENSMUSG00000041879_ENSMUST00000161189|perfect_dup|motif|central (ssRNA)
RNA: GGGAGUUCUACAGUCCGACGAUCUUAACGGUGCUUUUGAACUUGCUGUUCUCCAGUAGGGCAUGGACAAACUCAAAAAUGCGGAAGACGAGGUUCUCAAAGCCCAGGACUUCUCCAUCCGAAUCCACAGGAUCUUCCACUUCCCAACAGAGGAUUGAGCAUCA
B19: chr7:141438946:141438947:+_ENSG00000106028_ENST00000265304|hu_mus|hu_hu_hu_mus_True|88_88 (ssRNA)
RNA: GGGAGUUCUACAGUCCGACGAUCGACGAAAUACCUGUAACACAGGUGAAACAUGGCUGGCUUCUGUUUUUCUUACAACCUAAUCUUUAGGCUUUUCCUAAAGGAAAGAAAGAAAAGAGAAAAAUGAUAAAUCAAGAAACUACACAACAGAGGAUUGAGCAUCA
B20: chrX:135579806:135579807:+_ENSG00000102241_ENST00000218364|hu_mus|FALSE|FALSE (ssRNA)
RNA: GGGAGUUCUACAGUCCGACGAUCCAAGUUGUUGCCACUCAUGGUUCUCACGUAGUCCCGGACACCGCGGUCAGAGAAGUGAAGAGGCCGAGAGGGCGCUGGCGGGCUCCGCAGGGCCUCGCCGCCGCCGCUGCUGGGGCCAGGCAACAGAGGAUUGAGCAUCA
B21: chr3:38349274:38349275:-_ENSMUSG00000044864_ENSMUST00000156038|mus_hu|motif|central (ssRNA)
RNA: GGGAGUUCUACAGUCCGACGAUCGAAACAAAUAAGCAAGGCAGGGCAUCUCCAGCACCCAUCCUAUCAUCCUUAUCCGGACUCAAAGUCAUUUAUGUUCUAUUCCAAAACAUAAUUUAUAUAAAAACAUCCCGAGGAAUACUUCAACAGAGGAUUGAGCAUCA
B22: chr19:16212804:16212805:+_ENSG00000167460_ENST00000300933|hu_mus|hu_hu_hu_mus_False|18_78 (ssRNA)
RNA: GGGAGUUCUACAGUCCGACGAUCAACAAUUCUGGAGUGAAGGAAAGAUGUAACAUGCAAUUAAUUAAAAGCUCAGUCAGAAGGCACAUGGGCAACAAUGAUCACCCCAGCAUUCUCCUACGUUGACCUUAAAGACAAUCUGUUCAACAGAGGAUUGAGCAUCA

The test concerns the target T1, UNK ZnF1-3. Description: nsRBNS (natural sequence RNA bind-n-seq); RBNS binding buffer (assumed for nsRBNS): 25 mM Tris pH 7.5, 150 mM KCl, 3 mM MgCl2, 0.01% Triton X-100, 500 ug/ml BSA, 20 U/ml SUPERase-In, 4 C; UNK is unkempt and MSI1 is Musashi-1; names of the RNAs are library labels; protein concentration not given here; high values mean tight binding.
Turning to B1, the binding signal amounted to 1.93 enrichment R.

B2 displayed a binding signal of 0.442 enrichment R.

In turn, B3 had a binding signal of 0.409 enrichment R.

With B4, the binding signal stood at 0.542 enrichment R.

In the case of B5, the binding signal stood at 1.7 enrichment R.

B6 registered a binding signal of 1.05 enrichment R.

For the molecule B7, the binding signal turned out to be 0.976 enrichment R.

On to B8, for which the binding signal is 1.06 enrichment R.

Take B9: the binding signal was 1.27 enrichment R.

B10 displayed a binding signal of 1.09 enrichment R.

B11 yielded a binding signal of 2.73 enrichment R.

B12 showed a binding signal of 0.722 enrichment R.

In turn, B13 displayed a binding signal of 1.11 enrichment R.

Turning to B14, the binding signal was found to be 0.7 enrichment R.

Turning to B15, the binding signal was 1.82 enrichment R.

B16 had a binding signal of 0.71 enrichment R.

For the molecule B17, the binding signal is 0.289 enrichment R.

On to B18, for which the binding signal was 1.17 enrichment R.

The molecule B19 gave a binding signal of 0.798 enrichment R.

For B20, the binding signal stood at 0.833 enrichment R.

For B21, the binding signal came out at 1.39 enrichment R.

Molecule B22 came in with a binding signal of 1.05 enrichment R.
